The other results are listed elsewhere or left out.
B1: chr6:105099394:105099495:-|3pUTR|ENSG00000112276|msi1|FALSE|unique (ssRNA)
RNA: GGGAGUUCUACAGUCCGACGAUCUCCGUUGAAUGAAGCUCAUUGAUUGGCCAUGCUGGUCAUGUCUAUUUUGCUUCAUCCACUAGAACCAACUUUGAGUCAGUCUCCUGUUACGUUAAAUGGCUAAGAAAAGUUCCAAAUGAACAACAGAGGAUUGAGCAUCA
B2: chr12:47968718:47968836:+|3pUTR|ENSG00000134291|unk|total|mutant (ssRNA)
RNA: GGGAGUUCUACAGUCCGACGAUCCUGGGAGCUUUUUGAAAAGAAAGAAAAAAGUGUGUUGGCUUUUUUUUUUUUCCGAAAGUCCGAAUUGUUUUUACCAAGAGUCUAUGUGGGGCUUGAUUCACCCUUCAUCCAUUGGCUGGACAACAGAGGAUUGAGCAUCA
B3: chr20:38493008:38493109:+|CDS|ENSG00000170471|unk|FALSE|unique (ssRNA)
RNA: GGGAGUUCUACAGUCCGACGAUCAUUGGAUGGAGAGACUGUAAAAUAUUGCGUUGAUGUAUAUACAGACUGGAUUAUGGCUUUAGUGUUGCCAAAAGAUUCUAUUCCAUUGCCAGUUAUUAAAGAGCCUAAUCAAUAUGUUCACAACAGAGGAUUGAGCAUCA
B4: chr2:37644049:37644150:-|3pUTR|ENSG00000163171|msi1|FALSE|unique (ssRNA)
RNA: GGGAGUUCUACAGUCCGACGAUCUUAGGACAACUAACCAAGUAGACGAAACAAGUUCCCCUAGGCAGGGGUGUCCAAUAUUUUAGCUUCCCUGGACCGCAUUGGAAGAAUUUUCUUGGGCCACAUGUAAAACACACUAACACUCAACAGAGGAUUGAGCAUCA
B5: chrX:100644401:100644502:+|5pUTR|ENSG00000102359|unk|total|mutant (ssRNA)
RNA: GGGAGUUCUACAGUCCGACGAUCUUAACAGAAUCCCGGAGGCCGGGACAGACCAGGAGCCACUCGUUCCCGGAAUGUUAAAGCCGAAGGUUUUUUCCAAUUGAUGAGAGGAGCAGAGAGGAAGGAGAAAGAGGAGGAGAGAGACAACAGAGGAUUGAGCAUCA
B6: chr6:109481629:109481730:-|CDS|ENSG00000112365|unk|FALSE|unique (ssRNA)
RNA: GGGAGUUCUACAGUCCGACGAUCGCUCAGUUCUUAAAAGUCUAUGACCUGGUAAAGGCUUACACAGACUUCCAAAAUAAUCAUAGCUCCCCAAAGCCAACAACUUUGAACACUGCUGGUGCCCCAGUGGUUGUUAUCUCUAAUCAACAGAGGAUUGAGCAUCA

biological target: MSI1 full-length (mouse, UniProt Q61474 1-362); experiment: nsRBNS (natural sequence RNA bind-n-seq); RBNS binding buffer (assumed for nsRBNS): 25 mM Tris pH 7.5, 150 mM KCl, 3 mM MgCl2, 0.01% Triton X-100, 500 ug/ml BSA, 20 U/ml SUPERase-In, 4 C; UNK is unkempt and MSI1 is Musashi-1; names of the RNAs are library labels; protein concentration not given here; high values mean tight binding
UniProt Q61474, sequence (Q61474 whole entry): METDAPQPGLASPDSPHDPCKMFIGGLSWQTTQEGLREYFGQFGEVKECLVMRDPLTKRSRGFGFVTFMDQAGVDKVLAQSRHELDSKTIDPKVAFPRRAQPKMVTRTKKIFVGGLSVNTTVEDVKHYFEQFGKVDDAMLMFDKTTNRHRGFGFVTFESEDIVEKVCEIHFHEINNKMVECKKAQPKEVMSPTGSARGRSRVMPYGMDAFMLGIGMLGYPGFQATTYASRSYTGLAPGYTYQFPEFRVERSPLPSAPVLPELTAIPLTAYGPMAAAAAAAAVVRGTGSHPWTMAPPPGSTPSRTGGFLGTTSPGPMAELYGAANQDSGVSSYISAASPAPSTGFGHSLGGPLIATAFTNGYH

Binder | binding signal [enrichment R]
B1 | 0.225
B2 | 0.254
B3 | 0.505
B4 | 1.22
B5 | 0.501
B6 | 0.492
